Measurements taken from PubChem BioAssay AID360 (National Center for Advancing Translational Sciences (NCATS), 2006).
The campaign covered roughly 48,000 compounds. About 550 (1.1%) were called active. Not shown: some 4% with an inconclusive outcome. Cut-off read from the data, not from the text of the source: active = potency below about 15 µM; inconclusive = mostly about 16 µM to 33 µM; inactive = weaker than that. The list shows a part of the results.

target: Lysosomal acid glucosylceramidase (Homo sapiens) (UniProt P04062); assay: Glucocerebrosidase; settings: purified enzyme, resorufin glucoside fluorescence (screen aimed at inhibitors), 20 min; series mostly up to 77 µM;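 note: the screen sought inhibitors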
Method in brief: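 Wild-type enzyme at 0.2 nM final in 50mM citric acid/KH2PO4, 10mM sodium taurocholate, 0.01% tween-20, pH 5.9, with resorufin beta-D-glucopyranoside at 30 uM final. Compounds titrated, 20 min at RT, red fluorescence read; AC50 from titration.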
Potency is the fitted concentration of half-maximal effect.

Chain of UniProt P04062 (P04062 whole entry, looked up): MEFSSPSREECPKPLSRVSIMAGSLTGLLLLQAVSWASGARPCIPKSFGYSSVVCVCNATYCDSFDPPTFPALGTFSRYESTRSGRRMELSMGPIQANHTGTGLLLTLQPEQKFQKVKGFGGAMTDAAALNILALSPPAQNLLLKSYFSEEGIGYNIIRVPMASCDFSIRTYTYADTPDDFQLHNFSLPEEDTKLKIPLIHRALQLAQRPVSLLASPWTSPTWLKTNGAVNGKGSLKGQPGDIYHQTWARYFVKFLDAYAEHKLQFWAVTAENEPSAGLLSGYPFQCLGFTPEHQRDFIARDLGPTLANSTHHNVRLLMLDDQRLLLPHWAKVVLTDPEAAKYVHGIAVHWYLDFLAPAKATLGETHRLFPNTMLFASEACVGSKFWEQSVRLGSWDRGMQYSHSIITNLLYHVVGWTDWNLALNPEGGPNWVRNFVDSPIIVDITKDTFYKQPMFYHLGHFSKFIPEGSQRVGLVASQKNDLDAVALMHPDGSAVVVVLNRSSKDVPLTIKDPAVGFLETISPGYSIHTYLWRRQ

Potency, inactive:
O=C(Nc1cccnc1)C1(c2ccccc2)CCCC1 > 76.9 µM
Cc1ccc(NC(=O)CSc2nnc(-c3cnccn3)n2Cc2ccco2)cc1 > 76.9 µM
O=C(O)Cn1nnn(-c2ccccc2)c1=S > 76.9 µM
COc1cc(C(=O)Nc2ccncc2)cc(OC)c1OC > 76.9 µM
Cn1c(=O)c2c(nc(NCCc3ccccc3)n2CC(=O)NCCc2ccccc2)n(C)c1=O > 76.9 µM
O=C(CCS(=O)(=O)c1cc(Br)cc2c1N(C(=O)C1CC1)CC2)NCc1ccco1 > 76.9 µM
COc1cc(OC)c(NC(=O)Nc2ccc(OC)c(OC)c2)cc1Cl > 76.9 µM
COc1ccc(OC)c(/C=c2\sc3nc(-c4cccs4)nn3c2=O)c1 > 76.9 µM
CCOC(=O)N1CCN(C(=O)C2CCC(C(=O)N3CCN(C(=O)OCC)CC3)CC2)CC1 (stereo unspecified) > 76.9 µM
CC(=O)N1CCc2cc(S(=O)(=O)NC3CCCc4ccccc43)ccc21 (stereo unspecified) > 76.9 µM
CCN(CC(=O)Nc1ccc2c(c1)OCCO2)C(=O)C1CCCCC1 > 76.9 µM
CCOc1ccc(-c2nc3n(c(=O)c2C#N)CCCS3)cc1 > 76.9 µM
CC1(C)Cc2cccc(OCC(=O)Nc3cccnc3)c2O1 > 76.9 µM
CC1CCc2cc(F)ccc2N1C(=O)CCC(=O)O (stereo unspecified) > 76.9 µM
Cc1cccc(-n2nnnc2SC(C)C(=O)NCCC2=CCCCC2)c1 (stereo unspecified) > 76.9 µM
CC1CCCCN1C(=O)Cn1c(=O)oc2ccccc21 (stereo unspecified) > 76.9 µM
CC(=O)N1CCc2cc(S(=O)(=O)N3CCc4ccccc4C3)ccc21 > 76.9 µM
CC1CCCCC1NC(=O)c1cncc(Br)c1 (stereo unspecified) > 76.9 µM
CN1C(=O)c2ccc(NC(=O)C3CCCCC3)cc2C1=O > 76.9 µM
Cc1ccc(NC(=O)CCn2c(=O)oc3ccccc32)c(C)c1 > 76.9 µM
CCOC(=O)c1oc2ccccc2c1NC(=O)c1cccs1 > 76.9 µM
c1cncc(-c2nn3c(-c4ccncc4)nnc3s2)c1 > 76.9 µM
CCOC(=O)C1(Cc2ccc(O)cc2)NC(c2ccco2)C2C(=O)N(c3ccccc3F)C(=O)C21 (stereo unspecified) > 76.9 µM
Nc1c(S(=O)(=O)c2cccs2)c2nc3ccccc3nc2n1Cc1ccc2c(c1)OCO2
O=C1c2ccccc2C(=O)N1CNc1ccccc1 > 76.9 µM
Cc1ccc2cc(CN(CCCN(C)C)C(=O)NCc3ccccc3)c(=O)[nH]c2c1C > 76.9 µM
Cc1cc(C(=O)NCC(c2ccco2)N(C)C)no1 (stereo unspecified) > 76.9 µM
Cc1ccc(-c2nc3ncccn3c2Nc2ccc3c(c2)OCO3)o1 > 76.9 µM
O=C(Cn1nc(C(F)(F)F)c2c1CCCC2)NCc1ccco1 > 76.9 µM
Cc1cc(NC(=O)CSC2=Nc3ccccc3C3=NC(Cc4ccccc4)C(=O)N23)n[nH]1 (stereo unspecified) > 76.9 µM
CC1(C)Cc2nc3oc4c(N(CCO)Cc5ccccc5)ncnc4c3cc2CO1
COC(=O)c1c(N)sc(C(=O)N2CCOCC2)c1C > 76.9 µM
CC12CCCCC1(O)[N+](=O)C1=C(CCCC1)N2[O-] (stereo unspecified) > 76.9 µM
CC(C)(C)NS(=O)(=O)c1cccc2nsnc12 > 76.9 µM
CCOC(=O)C1CCN(CC(=O)c2c(C)[nH]c3ccccc23)CC1 > 76.9 µM
CN(C)c1cccc(NC(=O)CCc2ccccc2)c1 > 76.9 µM
O=C(Cn1nnc2c(cnn2-c2ccc(F)cc2)c1=O)OC1CCCCC1 > 76.9 µM
CC(=O)Nc1nc2ccc(Br)cc2s1 > 76.9 µM
Cn1c(=O)c2c(nc(CN3CCN(c4ccc(F)cc4)CC3)n2CCN2CCOCC2)n(C)c1=O > 76.9 µM
CC(NS(C)(=O)=O)C(c1cccs1)N1CCN(c2ccc(F)cc2)CC1 (stereo unspecified) > 76.9 µM
O=CN(Cc1ccco1)C1(C(=O)NC2CCCCC2)CCCCC1 > 76.9 µM
CCN(CC)C(=O)CSc1nc2ccccc2c(=O)[nH]1 > 76.9 µM
CCOC(=O)Cc1csc(NC(=O)CSc2nnc(C(C)C)n2CC)n1 > 76.9 µM
Cc1ccsc1C1C2=C(CCCC2=O)Nc2ncnn21 (stereo unspecified) > 76.9 µM
Cc1ccc(-n2c(N)c(-c3nc4ccccc4n3C)sc2=S)cc1 > 76.9 µM
COc1cc(NC(=O)Cn2c(-c3cncs3)nc3ccccc32)cc(OC)c1OC > 76.9 µM
CCCOc1ccc(CSc2ncn[nH]2)cc1 > 76.9 µM
O=S(=O)(NC1CC2CCC1C2)c1ccc2c(c1)OCCO2 (stereo unspecified) > 76.9 µM
COc1ccc(CCC(=O)N2c3ccccc3CC2C)cc1 (stereo unspecified) > 76.9 µM
NC(Cc1ccc2nonc2c1)C(=O)O (stereo unspecified) > 76.9 µM
O=C(Oc1ccc(-c2ccccc2)cc1)N1CCOCC1 > 76.9 µM
CC(C)n1c(NCc2c[nH]c3ccccc23)nc2ccccc21 > 76.9 µM
Cc1onc(-c2ccccc2)c1C(=O)N1CCN(S(=O)(=O)c2ccc3c(c2)OCCO3)CC1 > 76.9 µM
CCN(CC)C(=O)COc1cccc2ccccc12 > 76.9 µM
O=C(CN(Cc1ccccc1Cl)C(=O)c1ccc(CN2CCOCC2)o1)NCc1ccccc1 > 76.9 µM
O=C(Nc1ccc2c(c1)OCCO2)c1c(F)c(F)c(F)c(F)c1F > 76.9 µM
O=C(NCc1ccco1)c1sc2cccc(F)c2c1Cl > 76.9 µM
Cc1noc(N)c1C(=O)Nc1ccc(F)c(Cl)c1 > 76.9 µM
O=c1oc2ccccc2cc1-c1nc2ccccc2o1 > 76.9 µM
CCn1c(-c2cccc(Br)c2)n[nH]c1=S > 76.9 µM
COc1cc2nc(NC(=O)c3ccc(Cl)cc3)[nH]c(=O)c2cc1OC > 76.9 µM
O=C(NCCC1=CCCCC1)C1CCN(S(=O)(=O)c2ccc(-n3cnnn3)cc2)CC1 > 76.9 µM
CCOC(=O)N1CCC(O)(c2cc(C)c(C)cc2C)CC1 > 76.9 µM
COC(=O)c1cn[nH]c1N > 76.9 µM
CC1(C)CC(=O)C2=C(C1)NCN(Cc1ccccc1)C2 > 76.9 µM
Cn1c(=O)c2c(nc(OCC3COC(C)(C)O3)n2Cc2ccccc2F)n(C)c1=O (stereo unspecified) > 76.9 µM
O=C(Oc1ccc2cccc(OC(=O)N3CCOCC3)c2c1)N1CCOCC1 > 76.9 µM
Cc1ccc(C(C(=O)NC(C)(C)C)N(C(=O)c2csnn2)c2ccccc2F)o1 (stereo unspecified) > 76.9 µM
CCOC(=O)C1C(=O)OC(C)(C)C1C(C)C(=O)c1ccc(OC)cc1 (stereo unspecified) > 76.9 µM
CCN1CCCC1CN(Cc1cc2c(C)cc(C)cc2[nH]c1=O)C(=O)NC1CCCCC1 (stereo unspecified) > 76.9 µM
O=S(=O)(c1ccc(S(=O)(=O)N(Cc2ccco2)Cc2ccccc2Cl)cc1)N1CCCC1 > 76.9 µM
N#CCSc1nc(-c2ccccc2)cs1 > 76.9 µM
COc1ccc(OC)c(-c2nc(C)sc2CC(=O)O)c1 > 76.9 µM
Cc1cc(C)c(S(=O)(=O)n2nc(C)c(Br)c2C)c(C)c1 > 76.9 µM
COc1ccc(NC(=O)C(c2ccc(C)cc2)N(C)C(=O)c2cnccn2)cc1 (stereo unspecified) > 76.9 µM
O=C(Nc1cccc(F)c1)N1CC=C(n2c(=O)[nH]c3ccccc32)CC1 > 76.9 µM
O=C(c1cc2c(s1)CCCC2)N1CCN(C(=O)C2CCCO2)CC1 (stereo unspecified) > 76.9 µM
COc1cccc(-c2cc(C(=O)Nc3cc(C)n(Cc4ccc(Cl)cc4)n3)no2)c1 > 76.9 µM
C=CCn1c(SCC(=O)c2cccs2)nnc1-c1cccc(OC)c1 > 76.9 µM
CCC(=O)N1CCc2cc(S(=O)(=O)N3CCN(C(=O)c4ccco4)CC3)ccc21 > 76.9 µM
COc1ccc(CCNS(=O)(=O)c2ccc(C3CNC(=O)C3)cc2)cc1OC (stereo unspecified) > 76.9 µM
COc1cc(OC)c(NC(=O)CCNC(=O)Cn2cnc3ccccc3c2=O)cc1Cl > 76.9 µM
COc1ccc(C(C(=O)NC2CCCC2)N(C(=O)c2ccco2)c2ccc3c(c2)OCO3)cc1OC (stereo unspecified) > 76.9 µM
Cc1ccc(C(=O)Nc2c(C)n(C)n(-c3ccccc3)c2=O)cc1S(=O)(=O)N1CCOCC1 > 76.9 µM
CCn1cc(C(=O)NCc2ccc3c(c2)OCO3)c(=O)c2ccc(C)nc21 > 76.9 µM
COc1cc(C(=O)Nc2ccc(-c3nc4cc(C)ccc4o3)c(O)c2)cc(OC)c1OC > 76.9 µM
COc1ccccc1NC(=O)C(Cc1ccc(Cl)cc1)c1nn[nH]n1 (stereo unspecified) > 76.9 µM
Cc1cc(C)n2cc(CSc3ncccc3C(=O)O)nc2n1 > 76.9 µM
CCOC(=O)CCn1c(=O)c2c(nc(Br)n2Cc2ccccc2)n(C)c1=O > 76.9 µM
CCOC(=O)c1ccc(NC(=O)CCc2nc(-c3ccccc3)no2)cc1 > 76.9 µM
Cc1cc(NC(=O)CSc2nc3ccccc3n2CC(=O)N2CCCCC2)no1 > 76.9 µM
